According to the supplement of paper PMC5655136:
These are enrichments in a pooled selection; single values are uncertain.

Test system: NB7
Experiment: fold depletion of shRNA, plasmid library share / infected cells without Dox share (9 days) (ratio); higher = more depleted after infection (more toxic, leaky expression from a Tet-inducible vector; NB7 is a neuroblastoma line without caspase-8)
Conditions: shRNA pool: CD95L ORF + CD95L 3'UTR + Venus libraries
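Also: shRNA barcodes quantified by deep sequencing of PCR amplicons from cellular DNA, counts expressed as percent of each subpool, ratio averaged over two biological duplicates.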

Sequence	fold depletion of shRNA
TGTCTCCTTGTGATGTTTTTC	1.63
TGTCTGTAGCTCCTCAACTCA	9.85
TGTCTTTCAGATACATGGTTG	1.19
TGTGAAATGAAAACATGTAAT	0.599
TGTGAAGTACATATTAGGAAA	0.553
TGTGACCTGAGGATTTAAGGG	2.13
TGTGATCAATGAAACTGGGCT	1.85
TGTGATGTTTTTCATGGTTCT	1.79
TGTGGGCCCGCAGCAGCTACC	0.102
TGTGTATGACTAAAGAGAGAA	0.914
TGTGTATTTCCAGTGCAATTG	3.83
TGTGTCTCCTTGTGATGTTTT	2.09
TGTGTGTATGACTAAAGAGAG	0.996
TGTGTGTGTATGACTAAAGAG	3.08
TGTGTGTGTGTATGACTAAAG	2.53
TGTGTGTGTGTGTATGACTAA	1.63
TGTGTGTGTGTGTGTGTGTAT	9.37
TGTGTGTGTGTGTGTGTGTGT	2.36
TGTTACAGGCACCGAGAATGT	1.94
TGTTCACCGGGGTGGTGCCCA	1.73
TGTTCTACACTCATCTTAGTG	1.83
TGTTGTATTCAGTGAGGGTCT	1.49
TGTTTATGAGCCAGACAAATG	0.922
TGTTTCAGCTCTTCCACCTAC	3.92
TGTTTTCCTATAATATAATAA	0.673
TGTTTTGGGGACTCATTTCAT	3.3
TGTTTTTCATGGTTCTGGTTG	8.92
TTAAAAATCATTGATTGTCAG	2.27
TTAACTCACCTCTCAAGGTGG	3.97

Same assay, conditions: shRNA pool: CD95 ORF + CD95 3'UTR + Venus libraries

Sequence	fold depletion of shRNA
TGTCTATCCACAGGCTAACCC	7.14
TGTCTTCTTCTTTTGCCAATT	1.02
TGTGAACACTGTGACCCTTGC	1.44
TGTGAACATGGAATCATCAAG	1.21
TGTGAAGATAGTTATAAACTG	0.971
TGTGAATTCACATAGAAAACA	1.18
TGTGAATTTTAAGAAATAATA	1.23
TGTGACATGTCATGAACCCAT	0.926
TGTGACCCTTGCACCAAATGT	1.72
TGTGTGATGAAGGACATGGCT	1.66
TGTGTTTGGAATTATAAAATA	0.783
TGTTAATGCCCAAGTGACTGA	1.05
TGTTACTACAGTTGAGACTCA	2.18
TGTTAGTACAAATGTCTATCC	0.669
TGTTCAATAATGTCCCATGTA	0.916
TGTTCACCGGGGTGGTGCCCA	1.92
TGTTCGAAAGAATGGTGTCAA	0.793
TGTTGACTTGAGTAAATATAT	0.687

Sequence	fold depletion of shRNA
TGTTGCTAGATTATCGTCCAA	1.4
TGTTTAAAATCTAGTTGGGAA	1.46
TGTTTATAACTCTGAGAAGAT	0.684
TGTTTGAAAAGATTCTTAATA	0.994
TGTTTGACTATTATATATGTG	0.836
TGTTTGCAATCAAAGATGATA	1.86
TGTTTGGAATTATAAAATATA	1.26
TGTTTGGGTGAAGAGAAAGGA	0.926
TTAAAATCTAGTTGGGAAAAC	1.14
TTAAAGATCTCAAAAAAGCCA	3.93
TTAAAGGCTTTGTTCGAAAGA	0.287
TTAAATAAGGCTCTACCTCAA	4.59
TTAAATATCTTTGAAAGTTTG	1.05
TTAAATCCTGAAACAGTGGCA	1.02
TTAAATGTGAATTTTAAGAAA	0.758
TTAAATTATAATGTTTGACTA	1.44
TTAAGAAATAATATTTATATT	1.13
